Measurements from PubChem BioAssay AID1346428 (National Center for Advancing Translational Sciences (NCATS), 2018).
Hit rate of the full screen: of about 48,000 compounds, about 1,200 (2.5%) were called active. Not shown: some 2% with an inconclusive outcome.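 How the source made its calls: active means activation of at least 60% and not above a set upper limit (about 1 call in 100 departs from these limits); inconclusive means activation of 40% to 60%, or above that upper limit; inactive means activation under 40%.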 The list shows a part of the results.

molecular target: Probable G-protein coupled receptor 32 (Homo sapiens) (UniProt O75388); assay: qHTS for Agonists of Human Resolvin D1 Receptor DRV1; conditions: CHO-K1 GPR32 beta-arrestin PathHunter luminescence, 90 min; at 76.9 µM; active compounds read high; zero percent set by DMSO-only wells; further: 0% is about no effect
Sequence of UniProt O75388 (O75388 whole entry, looked up): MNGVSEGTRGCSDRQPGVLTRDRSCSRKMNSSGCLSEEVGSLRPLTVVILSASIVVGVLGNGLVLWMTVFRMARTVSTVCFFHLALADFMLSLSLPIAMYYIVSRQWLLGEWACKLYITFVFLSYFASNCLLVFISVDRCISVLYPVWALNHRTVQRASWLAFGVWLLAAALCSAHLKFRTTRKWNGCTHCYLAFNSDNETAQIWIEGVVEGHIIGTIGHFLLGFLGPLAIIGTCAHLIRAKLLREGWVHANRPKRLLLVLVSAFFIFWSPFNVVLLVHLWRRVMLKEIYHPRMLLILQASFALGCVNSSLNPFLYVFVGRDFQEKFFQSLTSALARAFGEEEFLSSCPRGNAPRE
Procedure, shortened: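 Readings come from a cell-based beta-arrestin complementation format: CHO-K1 GPR32 stable cells (2,500/well) treated 90 min with compounds, then beta-Gal substrate added for 1 h before chemiluminescence imaging.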

activation, active:
CCCc1c(OCCCCc2nn[nH]n2)ccc(C(C)=O)c1O 86.6%

activation, inactive:
COc1ccc(S(=O)(=O)N(CC(=O)NCc2ccccc2OC)c2ccc(C)cc2)cc1 -33.3%
COc1ccccc1CCNC(=O)CCc1c(C)c2cc3c(C)coc3c(C)c2oc1=O -12.9%
CN(C)CCN(Cc1ccco1)S(=O)(=O)c1cc2c(cc1Cl)NC(=O)CO2 -6.01%
Cc1nn(CCCC(=O)Nc2ccccc2C(F)(F)F)c(=O)c2c1sc1ccccc12 -3.94%
Cc1cn2c(=O)cc(COc3ccc(NC(=O)c4cccc(F)c4)cc3)nc2s1 3.71%
O=C(Cn1c(=O)n(Cc2ccco2)c(=O)c2oc3ccccc3c21)Nc1ccc(F)cc1F -12%
CCC(Sc1nnc(C)n2c1cc1occc12)C(=O)Nc1ccccc1F (centres undefined) -19.3%
COc1cccc(NC(=O)Nc2cc(-c3cn4cccnc4n3)ccc2C)c1 32.8%
Cn1c(=O)n(C)c2cc(NS(=O)(=O)c3ccccc3)c(NCc3ccccc3)cc21 -15.5%
O=C(NCCO)C(=O)Nc1c2c(nn1-c1ccc(F)cc1)CSC2 -19.5%
CCS(=O)(=O)N1CC(=O)N(c2cccc(Cl)c2C)C(C)(C(=O)NC2CCCCC2)C1 (centres undefined) -7.28%
CCCN(c1ccccc1CC)S(=O)(=O)c1ccc2c(c1)CC(C)N2C(=O)C1CC1 (centres undefined) -20.2%
CCN(CCCNC(=O)c1cc2cc3ccc(C)cc3nc2s1)c1ccccc1 5.51%
COCCNC(=O)CCCN1C(=O)c2ccccc2Sc2ncccc21 -7.54%
O=S(=O)(c1cccc(F)c1)N1CCC(c2nc3ccccc3s2)CC1 8.17%
COc1ccc(-c2nc(CSCC(=O)N3CCN(c4ccc(OC)cc4)CC3)c(C)o2)cc1 -7.35%
Cc1ccc(NC(=O)c2oc3ccc(S(=O)(=O)N(C)C4CCCCC4)cc3c2C)cc1Cl -7.66%
COc1cccc2c1cc1c(=O)n(CC(=O)NC3CC3)nc(C)n12 -10.5%
CC(=O)N1CCc2cc(S(=O)(=O)NC(CC(C)C)C(=O)NCc3ccccc3)ccc21 (centres undefined) 16.5%
O=c1c(=O)n(-c2cccc(Cl)c2)ccn1Cc1cccc(F)c1 -14.3%
COc1cccc(-c2nc(CSCC(=O)NCCc3ccc(Cl)cc3)c(C)o2)c1 -4.38%
Cc1nnc(SCC(=O)Nc2ccc(Br)cc2)[nH]c1=O 3.99%
Cc1ccc(-c2nc(N3CCN(c4ccccc4Cl)CC3)c3ccccc3n2)cc1 -9.61%
